Out of some 310,000 compounds screened, about 14,000 (4.5%) showed an effect of 50% or more. Effects have a minus sign here. Some of the results follow.
What follows are compounds tested against human ether-à-go-go-related gene (hERG) potassium channel (human, UniProt Q12809) (assay: primary screen, population patch clamp on CHO cells stably expressing hERG).
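Also: peak tail current of the secondary pulse compared with the same well before compound.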

human ether-à-go-go-related gene (hERG) potassium channel, sequence (Q12809 whole entry, looked up): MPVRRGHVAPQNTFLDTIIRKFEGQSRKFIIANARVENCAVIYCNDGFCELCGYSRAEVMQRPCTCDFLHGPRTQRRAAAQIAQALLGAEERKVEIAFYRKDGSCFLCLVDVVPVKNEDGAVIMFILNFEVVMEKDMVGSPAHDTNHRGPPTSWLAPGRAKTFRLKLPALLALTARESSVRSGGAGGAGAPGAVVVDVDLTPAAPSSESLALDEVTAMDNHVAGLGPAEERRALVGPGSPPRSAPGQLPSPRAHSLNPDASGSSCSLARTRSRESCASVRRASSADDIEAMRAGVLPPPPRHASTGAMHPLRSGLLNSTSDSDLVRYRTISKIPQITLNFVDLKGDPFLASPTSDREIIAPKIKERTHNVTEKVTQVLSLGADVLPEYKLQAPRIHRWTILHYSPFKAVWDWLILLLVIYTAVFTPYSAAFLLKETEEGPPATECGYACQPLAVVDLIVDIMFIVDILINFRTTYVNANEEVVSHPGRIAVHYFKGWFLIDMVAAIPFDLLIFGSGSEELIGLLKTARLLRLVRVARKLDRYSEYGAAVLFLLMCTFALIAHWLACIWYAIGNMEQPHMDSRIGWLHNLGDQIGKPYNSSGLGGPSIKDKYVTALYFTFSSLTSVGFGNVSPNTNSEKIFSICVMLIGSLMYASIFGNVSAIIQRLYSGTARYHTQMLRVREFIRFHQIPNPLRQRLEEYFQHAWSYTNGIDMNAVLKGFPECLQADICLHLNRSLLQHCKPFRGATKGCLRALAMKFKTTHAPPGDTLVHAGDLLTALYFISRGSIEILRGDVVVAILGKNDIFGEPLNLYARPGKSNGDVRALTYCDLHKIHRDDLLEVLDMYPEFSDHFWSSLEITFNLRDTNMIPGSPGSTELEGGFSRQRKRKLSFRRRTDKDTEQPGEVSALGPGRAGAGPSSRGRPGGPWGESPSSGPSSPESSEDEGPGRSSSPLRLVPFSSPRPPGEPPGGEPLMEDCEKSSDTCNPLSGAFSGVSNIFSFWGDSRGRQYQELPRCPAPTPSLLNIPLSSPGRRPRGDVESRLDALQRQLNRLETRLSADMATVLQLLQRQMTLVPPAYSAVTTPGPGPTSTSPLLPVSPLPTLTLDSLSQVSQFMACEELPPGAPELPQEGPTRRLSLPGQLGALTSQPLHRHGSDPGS

Structure (SMILES) | hERG current change (%, negative = inhibition) at 10uM
CN(C)CCCNC(=O)c1cc(C(=O)c2cccc(Cl)c2Cl)c[nH]1 | -51%
O=[N+]([O-])c1ccc(Oc2ccc(-c3nnco3)cc2)c(Cl)c1 | -8.14%
COc1ccc(-c2noc(N3CCCC(C(=O)Nc4ccc(F)cc4F)C3)n2)cc1 (centres unmarked) | -37%
CC(C)[C@H](N)c1nnc(SCc2ccc(Cl)cc2)o1.Cl | -14.6%
Clc1ccc(Cc2nnc(-c3ccccc3Br)o2)cc1 | -1.47%
COc1ccc(S(=O)(=O)CCC(=O)N(C)c2ccc(OC)cc2OC)cc1 | -12.8%
COc1ccc(NC(=O)C2CCCC2)cn1 | 16.2%
Cn1c(=O)c2c(ncn2CC(N)=O)n(C)c1=O | 13.9%
Cc1cc(C)cc(Nc2nc3c(S(=O)(=O)c4ccccc4)nnn3c3ccccc23)c1 | 6.62%
Cc1ccc(N(CC(=O)Nc2c(C)n(C)n(-c3ccccc3)c2=O)S(C)(=O)=O)cc1C | 16%
COC(=O)c1ccccc1NC(=O)c1ccc2c(c1)OCCCO2 | 8.83%
CCCc1cc(=O)oc2cc(C)cc(OCC(=O)NCc3ccccn3)c12 | -33.7%
CC1CN(c2ccc(NC(=S)Nc3ccc(N4CC(C)OC(C)C4)cc3)cc2)CC(C)O1 (centres unmarked) | 19.5%
COc1ccccc1CC1(C)NC(=O)N(CC(=O)Nc2cc(C)on2)C1=O (centres unmarked) | 7.53%
C[C@@H](N)Cc1cnc[nH]1.Cl | 15.5%
O=C(CCCN1C(=O)/C(=C\c2ccccc2)SC1=S)Nc1ccccc1O | 36.3%
Cc1sc2nc(CN3CCCC3)nc(N3CCN(S(=O)(=O)c4cccc(F)c4)CC3)c2c1C | -70.1%
CCc1nn(CC(=O)NCc2ccccc2Cl)c(=O)c2cccn12 | 11.7%
COC(=O)c1ccc(NC(=O)Nc2ccc(C)cc2)cc1 | -0.0581%

Structure (SMILES) | hERG current change (%, negative = inhibition) at 10uM
CCOC(=O)Cc1csc(NC(=S)NC(=O)c2ccc(F)cc2)n1 | 11.9%
COc1cc(CNC2CCCCCCC2)ccc1OCC(N)=O | -0.113%
Cc1cc(=O)oc2ccc(OC(=O)CC(C)C)cc12 | 26.6%
CC1CCC2C(=O)N(c3ccc(C(=O)NCc4ccccc4)cc3)C(=O)C2C1 (centres unmarked) | 5.83%
CN(CC(=O)N1CC=C(c2ccccc2)CC1)S(=O)(=O)c1ccc2c(c1)c(=O)n(C)c(=O)n2C | -30.2%
O=C(NCCNC(=O)c1ccccc1Br)c1cccnc1 | 24%
CCO[C@H]1OC(C(=O)O)=C[C@@H](C2CCCCC2)[C@@H]1CCCO | 12.5%
O=C(CNC(=O)OCc1ccccc1)NC1CCCCCC1 | 22.6%
Cc1cnc(C(=O)OCC(=O)c2csc(N3CCCCC3)n2)cn1 | 2.53%
Cn1nc(-c2ccc(OCC(=O)Nc3ccccc3)cc2)c2ccccc2c1=O | 8.71%
Cc1ccc(C(C(=O)NC2CCCC2)N(C(=O)CNC(=O)c2cccs2)c2cccnc2)o1 (centres unmarked) | -11.1%
O=C(Nc1nnc(SCCN2CCOCC2)s1)C1CC(=O)N(c2ccccc2)C1 (centres unmarked) | 3.77%
CCOC(=O)c1c(/N=C/C2C(=O)NC(=S)NC2=O)sc(C)c1C | 11.4%
Cc1ccc(S(=O)(=O)n2ccc3c(OCCOCCNCc4ccc(F)cc4)cccc32)cc1 | -5.55%
CCc1cc(-c2n[nH]c(=S)n2Cc2ccccc2)cs1 | 7.7%
O=S(=O)(C/C(=C/CO)S(=O)(=O)c1ccccc1)c1ccccc1 | -1.88%
COc1cccc(NC(=O)CN(C)C(=O)c2c(-c3ccccc3)noc2C)c1 | 4.01%
C/C(=N\NC(=S)NC1CCCCC1)c1ccc(Cl)c(Cl)c1 | 4.06%
CCOc1ccc(/C=N/O)cc1 | 16.8%

Structure (SMILES) | hERG current change (%, negative = inhibition) at 10uM
CN(CC(=O)O/N=C(\N)c1ccc(Br)cc1)S(=O)(=O)c1ccccc1 | 7.66%
CC(=O)Cc1nsc(NC(=O)c2ccc(-c3cc(C(F)(F)F)ccc3Cl)o2)n1 | 22.7%
Cc1cccc2nc(C(=O)Nc3cc(Cl)ccc3-n3cncn3)cn12 | 0.864%
CCOc1ccc(C(CC(=O)O)NC(=O)COc2ccccc2)cc1 (centres unmarked) | 11.8%
O=C1CCSc2cccc3cccc(c23)N1 | -2.86%
CC(=O)c1ccc(S(=O)(=O)N(C)C(C)CCc2ccco2)cc1 (centres unmarked) | -6.81%
Cc1ccc(OP(N)(=O)Oc2ccc(C)cc2)cc1 | 12.9%
Cc1cc(NC(=O)c2cccnc2)ccc1NC(=O)c1ccco1 | 11.6%
COc1ccc(NS(=O)(=O)c2cc(NC(=O)c3ccco3)ccc2N2CCCC2)cc1 | -20.6%
CCC(=O)N1CCc2cc(S(=O)(=O)N3CCCCCC3)ccc21 | 12.6%
COc1cccc(CNC(=O)c2nnn(-c3ccc(OC(F)(F)F)cc3)c2N)c1 | -3.07%
Cc1ccc(C)c(N2CCN(CCCNC(=O)Cn3cccc3C(=O)c3ccccc3)CC2)c1 | -87.2%
CC1CC2=C(C(=O)O1)C(c1ccccc1)Nc1ccccc1N2 (centres unmarked) | 19.8%
CC(C)NS(=O)(=O)c1ccc(CCC(=O)NCc2ccncc2)cc1 | -0.399%
CCCCc1cc(=O)oc2cc(C)cc(OCC(=O)N3CCC(C(=O)O)(c4ccccc4)CC3)c12 | 2.05%
CCN(CC)S(=O)(=O)c1cccc(-c2nnc(SCCOc3ccc(Cl)cc3)o2)c1 | -10.3%
O=C(NCc1ccc(F)cc1)c1cccc(S(=O)(=O)N2CCOCC2)c1 | -25.4%
O=C(CCC(=O)N1C[C@H]2C[C@@H](C1)c1cccc(=O)n1C2)NCc1cccc(C(F)(F)F)c1 | 6.62%
